# According to PubChem BioAssay (Tox21):
# Inconclusive results are not listed. Unless noted, the call rests on the fitted dose curve; in most records, active means well fitted curve in the direction sought with a large enough effect in the repeat runs; inconclusive means weak or mixed curves; inactive means no such curve, though single readings can be large; an effect the other way counts as inactive or inconclusive. Some compounds were tested as several samples or in several runs, with calls that do not always agree. A number of entries come with more than one value. The other results are left out here. An entry can have further records. The values listed for one entry are repeated measurements in other runs, samples, wells, individuals or studies. Marks in square brackets tell the records apart. Letters hold for one entry only.
# Key:
# [1] = qHTS assay to identify small molecule antagonists of the thyroid receptor (TR) signaling pathway (AID 743065); further: nearly all actives have a fitted effect of over 55% in size
# Method in brief: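 Antagonism measured as loss of luciferase signal in GH3 cells stably carrying a TRE-luciferase reporter, co-treated with compound and T3 (1 nM final) for 23.5 h at 37 C. Viability was read in the same well by CellTiter-Fluor.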
# [2] = qHTS assay for small molecules that induce genotoxicity in human embryonic kidney cells expressing luciferase-tagged ATAD5 - cell viability (AID 651634; calls by dose curve; further: nearly all actives have a fitted effect of over 25% in size)
# Method in brief: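 Cytotoxicity counter-readout: after 15.5 hr compound treatment at 37C, live-cell protease activity in ATAD5-luciferase HEK293T cells measured by CellTiter-Fluor fluorescence, 30 min development at 37C.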
# [3] = qHTS assay to identify small molecule antagonists of the glucocorticoid receptor (GR) signaling pathway - cell viability counter screen (AID 720693); further: nearly all actives have a fitted effect of over 55% in size
# [4] = qHTS assay to identify small molecule agonists of the constitutive androstane receptor (CAR) signaling pathway - cell viability counter screen (AID 1224836); further: nearly all actives have a fitted effect of over 45% in size
# Method in brief: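 Using CellTiter-Fluor, viability of HepG2 cells harbouring hCAR and CYP2B6-2.2kb was measured following 23 h incubation with a 15-concentration compound series plus PK11195 (0.75 uM final).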
# [5] = qHTS assay to identify small molecule antagonists of the constitutive androstane receptor (CAR) signaling pathway - cell viability counter screen (AID 1224837); further: nearly all actives have a fitted effect of over 45% in size
# Method in brief: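 Cytotoxicity counter-screen: CellTiter-Fluor fluorescence after 23 h compound exposure (15-point qHTS) in double-stable HepG2-CYP2B6-hCAR cells, with 50 nM CITCO added.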
# [6] = A CellTox Green Cytotoxicity Assay to monitor cytotoxicity in HEK293 cells - 16 hour (AID 1224888); further: nearly all actives have a fitted effect of over 35% in size
# Method in brief: (§1)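 Fluorescence from a DNA-binding dye excluded by viable cells was measured repeatedly in the same HEK293 wells (600 cells/well) during continuous compound exposure at 37 C. Each assay gives one read point: 0, 8, 16, 24, 32 or 40 h.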
# [7] = A CellTox Green Cytotoxicity Assay to monitor cytotoxicity in HEK293 cells - 24 hour (AID 1224875); further: nearly all actives have a fitted effect of over 45% in size
# Method in brief: as §1
# [8] = qHTS assay to identify small molecule antagonists of the peroxisome proliferator-activated receptor gamma (PPARg) signaling pathway - cell viability counter screen (AID 743194); further: nearly all actives have a fitted effect of over 55% in size
# Method in brief: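 Viability was measured as CellTiter-Glo luminescence in GeneBLAzer PPARg UAS-bla HEK293H cells. These cells had been exposed 17 h at 37 C to compounds together with rosiglitazone at 50 nM final, with the beta-lactamase readout taken in the same wells.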
# [9] = qHTS assay to identify small molecule antagonists of the progesterone receptor (PR) signaling pathway - cell viability counter screen (AID 1346798); further: nearly all actives have a fitted effect of over 50% in size
# Method in brief: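 Following a 4 hr attachment, PR-UAS-bla HEK293T cells in charcoal-stripped FBS medium were exposed to compounds with R5020 for 16 hr; CellTiter-Glo was added and luminescence read after 30 min at room temperature.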
# [10] = molecular target: Androgen receptor (Homo sapiens) (UniProt P10275); experiment: qHTS assay to identify small molecule agonists of the androgen receptor (AR) signaling pathway using the MDA cell line (AID 743040; further: nearly all actives have a fitted effect of over 20% in size)
# UniProt P10275, sequence (P10275 whole entry, looked up): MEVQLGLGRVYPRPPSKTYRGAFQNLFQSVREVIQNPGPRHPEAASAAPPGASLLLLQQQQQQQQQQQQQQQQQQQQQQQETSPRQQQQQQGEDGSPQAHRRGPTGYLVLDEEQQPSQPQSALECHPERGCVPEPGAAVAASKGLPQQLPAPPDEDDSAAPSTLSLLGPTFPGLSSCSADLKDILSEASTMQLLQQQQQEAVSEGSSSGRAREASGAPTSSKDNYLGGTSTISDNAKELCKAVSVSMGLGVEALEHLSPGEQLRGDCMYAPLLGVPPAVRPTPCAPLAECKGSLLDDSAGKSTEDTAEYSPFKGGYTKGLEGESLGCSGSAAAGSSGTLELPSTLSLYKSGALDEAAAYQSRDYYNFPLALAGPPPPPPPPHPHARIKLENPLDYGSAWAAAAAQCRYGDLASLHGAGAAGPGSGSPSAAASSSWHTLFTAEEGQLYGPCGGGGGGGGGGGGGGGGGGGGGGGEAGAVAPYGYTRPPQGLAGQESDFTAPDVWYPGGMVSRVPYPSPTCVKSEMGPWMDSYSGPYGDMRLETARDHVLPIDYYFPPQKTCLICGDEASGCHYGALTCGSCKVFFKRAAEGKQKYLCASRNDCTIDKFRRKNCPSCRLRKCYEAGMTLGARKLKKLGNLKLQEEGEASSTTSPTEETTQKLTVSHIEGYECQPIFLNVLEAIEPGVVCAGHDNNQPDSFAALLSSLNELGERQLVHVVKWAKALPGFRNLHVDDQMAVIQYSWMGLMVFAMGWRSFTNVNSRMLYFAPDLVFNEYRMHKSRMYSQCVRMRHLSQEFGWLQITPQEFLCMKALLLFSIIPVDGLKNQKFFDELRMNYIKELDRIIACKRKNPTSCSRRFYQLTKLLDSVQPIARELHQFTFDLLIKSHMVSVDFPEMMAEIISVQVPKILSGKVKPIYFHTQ
# [11] = qHTS assay to identify small molecule agonists of the sonic hedgehog signaling (Shh) pathway (AID 1259368; calls by dose curve; further: nearly all actives have a fitted effect of over 15% in size)
# Method in brief: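 Luminescence was read after 30 min at room temperature with luciferase reagent. Before that, 3T3Gli1-Luc cells (NIH/3T3 clone, stable Gli1-Luc reporter; 2,000/well) were exposed to compounds for 24 hr at 37C, 5% CO2, compounds being added 4 hr post-plating.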
# [12] = qHTS assay to identify small molecule antagonists of the androgen receptor (AR) signaling pathway using the MDA cell line - cell viability counter screen (AID 743041; further: nearly all actives have a fitted effect of over 45% in size)
# Method in brief: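 Viability read by CellTiter-Fluor fluorescence in the same wells as the antagonist screen, added after 15.5 h of a 16 h, 37C exposure. Human breast carcinoma MDA-kb2 AR-luc cells, compounds co-dosed with agonist R1881.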
# [13] = molecular target: Peroxisome proliferator-activated receptor delta (Homo sapiens) (UniProt Q03181); experiment: qHTS assay to identify small molecule agonists of the peroxisome proliferator-activated receptor delta (PPARd) signaling pathway (AID 743212; calls by dose curve;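 further: HEK293H cells with PPARd UAS beta-lactamase reporter GeneBLAzer system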)
# UniProt Q03181, sequence (Q03181 whole entry, looked up): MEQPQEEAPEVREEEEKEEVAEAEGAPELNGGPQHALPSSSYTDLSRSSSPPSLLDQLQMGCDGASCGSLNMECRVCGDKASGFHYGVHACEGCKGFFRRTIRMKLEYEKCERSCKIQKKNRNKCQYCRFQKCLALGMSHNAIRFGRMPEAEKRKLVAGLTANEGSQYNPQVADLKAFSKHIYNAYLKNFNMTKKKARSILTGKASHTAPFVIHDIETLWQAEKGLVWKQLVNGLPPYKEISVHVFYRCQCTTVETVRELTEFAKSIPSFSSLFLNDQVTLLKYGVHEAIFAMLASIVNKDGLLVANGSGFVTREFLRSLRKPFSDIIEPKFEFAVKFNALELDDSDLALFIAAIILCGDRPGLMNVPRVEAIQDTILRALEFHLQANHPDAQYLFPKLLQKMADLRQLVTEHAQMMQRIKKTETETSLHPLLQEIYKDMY
# Method in brief: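 Beta-lactamase reporter readout: a ratiometric FRET signal from the LiveBLAzer substrate after 2 h at room temperature. Compound exposure at 37 °C in PPARδ-bla HEK293H cells driven by an upstream activator sequence.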
# [14] = qHTS assay to identify small molecule antagonists of the estrogen receptor alpha (ER-alpha) signaling pathway using the BG1 cell line in the presence of 0.1 nM 17-beta-estradiol - cell viability counter screen (AID 1259241); further: nearly all actives have a fitted effect of over 40% in size
# Method in brief: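 Estradiol-stimulated (0.1 nM) VM7Luc4E2 cells exposed to compounds 22 hr; viability measured by fluorescence of cleaved CellTiter-Fluor substrate after 30 min.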
# Potency means the concentration at half of the fitted maximal effect.
compound,measurement,setting,value
Brc1ccc(Oc2cc(Br)c(Br)cc2Br)c(Br)c1,Potency,[1],inactive [sample A] and active: 43.6 µM [sample B]
Oc1cc(Cl)ccc1Oc1ccc(Cl)cc1Cl,Potency,[2],inactive [sample A] and active: 8.84 µM [sample B]
same,Potency,[3],inactive [sample A] and active: 22.4 µM [sample B]
same,Potency,[4],active: 49.7 µM [sample A] and inactive [sample B]
same,Potency,[5],active: 55.8 µM [sample A] and inactive [sample B]
same,Potency,[6],active: 22.4 µM [sample A] and inactive [sample B]
O=C(Nc1ccc(Br)cc1)c1cc(Br)cc(Br)c1O,Potency,[2],inactive [sample A] and active: 27.2 µM [sample B] and active: 30.6 µM [sample C]
same,Potency,[7],inactive [sample A] and active: 38.9 µM [sample B] and inactive [sample C]
same,Potency,[6],inactive [sample A] and active: 34.7 µM [sample B] and inactive [sample C]
CC(C)C(=O)OCC(C)(C)C(OC(=O)C(C)C)C(C)C (stereo not drawn),Potency,[1],active: 69.1 µM [sample A] and inactive [sample B]
O=c1oc2ccccc2c(O)c1C(CC(O)c1ccc(-c2ccc(Br)cc2)cc1)c1ccccc1 (stereo not drawn),Potency,[8],active: 32.8 µM [sample A] and inactive [sample B]
CCCCNC(=O)n1c(NC(=O)OC)nc2ccccc21,Potency,[9],active: 48.3 µM [sample A] and inactive [sample B]
NC(=S)Nc1ccccc1,Potency,[7],active: 49.8 µM [sample A] and inactive [sample B]
same,Potency,[6],active: 49.8 µM [sample A] and inactive [sample B]
CCC(C)(C)c1ccc(O)cc1,Potency,[6],active: 55.5 µM [sample A] and active: 49 µM [sample B] and inactive [sample C]
Nc1ccc(Cl)cc1N,Potency,[10],inactive [sample A] and active: 9.69 µM [sample B]
same,Potency,[11],inactive [sample A] and active: 686 nM [sample B]
O=C1C=CC(=O)C=C1,Potency,[8],inactive [sample A] and active: 43.6 µM [sample B]
CCCCCc1cc(O)cc(O)c1,Potency,[2],inactive [sample A] and active: 54.5 µM [sample B]
Oc1c(Cl)c(Cl)c(Cl)c(Cl)c1Cl,Potency,[2],active: 26.8 µM [sample A] and inactive [sample B]
same,Potency,[3],active: 48 µM [sample A] and inactive [sample B]
CC(C)Oc1cc(-n2nc(C(C)(C)C)oc2=O)c(Cl)cc1Cl,Potency,[7],active: 608 nM [sample A] and inactive [sample B]
same,Potency,[6],active: 608 nM [sample A] and inactive [sample B]
O=C(CCl)c1ccccc1,Potency,[1],inactive [sample A] and active: 54.5 µM [sample B]
O=Cc1ccco1,Potency,[7],active: 26.6 µM [sample A] and inactive [sample B]
same,Potency,[6],active: 26.6 µM [sample A] and inactive [sample B]
C[C@]12CCC(=O)C[C@@H]1CC[C@@H]1[C@@H]2CC[C@]2(C)[C@@H](O)CC[C@@H]12,Potency,[9],active: 48 µM [sample A] and inactive [sample B]
CCC(=O)O[C@H]1CC[C@H]2[C@@H]3CCC4=CC(=O)CC[C@]4(C)[C@H]3CC[C@]12C,Potency,[1],inactive [sample A] and active: 30.6 µM [sample B]
same,Potency,[6],active: 43.6 µM [sample A] and inactive [sample B]
O=[N+]([O-])c1c(Cl)c(Cl)c(Cl)c(Cl)c1Cl,Potency,[1],inactive [sample A] and active: 34.4 µM [sample B]
CCC(C)c1cc([N+](=O)[O-])cc([N+](=O)[O-])c1O (stereo not drawn),Potency,[2],inactive [sample A] and active: 8.63 µM [sample B]
same,Potency,[12],inactive [sample A] and active: 43.3 µM [sample B]
same,Potency,[1],inactive [sample A] and active: 9.69 µM [sample B]
same,Potency,[13],inactive [sample A] and active: 54.9 µM [sample B]
same,Potency,[4],inactive [sample A] and active: 19.3 µM [sample B]
same,Potency,[5],inactive [sample A] and active: 21.7 µM [sample B]
same,Potency,[14],inactive [sample A] and active: 21.7 µM [sample B]
CC(C)(C)c1ccccc1O,Potency,[7],active: 49.5 µM [sample A] and inactive [sample B]
